Among the data in PMC11117730 (2024) are Kd and koff values, retold here.

A word on the Kd: it is the constant that tells how readily two partners part at equilibrium. The low end stands for a tighter complex, the high end for a looser complex. One may read the koff as the first-order rate constant of dissociation.

For one assay, the target named is anti-IL-17A. Kind of assay: SPR.
For another assay, the target named is anti-IL-17A-sST2 (mouse, UniProt P14719 27-332). Kind of assay: SPR. (SPR reads the build-up and loss of mass on a sensor chip optically.)

anti-IL-17A, sequence (Q16552 24-155): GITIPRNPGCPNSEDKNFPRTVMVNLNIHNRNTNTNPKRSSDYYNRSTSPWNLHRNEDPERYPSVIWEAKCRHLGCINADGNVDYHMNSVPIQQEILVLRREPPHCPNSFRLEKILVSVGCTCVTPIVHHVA

B1: human IL-17A (protein)
chain: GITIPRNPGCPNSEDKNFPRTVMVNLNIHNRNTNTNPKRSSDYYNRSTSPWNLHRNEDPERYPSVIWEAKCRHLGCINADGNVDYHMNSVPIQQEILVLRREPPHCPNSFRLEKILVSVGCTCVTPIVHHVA
In the assay with anti-IL-17A, B1 came in with a Kd of 0.027 nM and a koff of 2.32e-05 s⁻¹. In addition, in the assay with anti-IL-17A-sST2, binding was put at a Kd of 0.0213 nM and the koff came out at 1.77e-05 s⁻¹.
